Test results reported in PubChem BioAssay AID485364 (National Center for Advancing Translational Sciences (NCATS), 2010).
The campaign covered roughly 360,000 compounds. About 11,000 (3.1%) were called active. The inconclusive results got no clear call from the source; some entries with a clear call stand among them for comparison. The call rests on the fitted dose curve; in most records, active means well fitted inhibition curve with a large enough effect; inconclusive means small, poorly fitted or top-dose-only effect; inactive means no such curve, though single readings can be large or run the other way. No potency is given beside an inconclusive call; the fits are too rough.

What follows are compounds tested against Schistosoma mansoni thioredoxin glutathione reductase (TGR) (UniProt Q962Y6) (assay: qHTS Assay for the Inhibitors of Schistosoma Mansoni Peroxiredoxins). Conditions: purified TGR, DTNB reduction, TNB absorbance 405 nm; series mostly up to 114 µM.
Method in brief: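 TGR 20 nM + NADPH 100 uM (dispensed conc.), cpd preinc 15 min RT; start with NADPH (500 uM addition) then DTNB (15 mM addition). Kinetic TNB absorbance, 405 nm filter. Four-parameter Hill fit across titration.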
Further: nearly all actives have a fitted effect of over 60% in size.
Potency means the concentration at half of the fitted maximal effect; tags describe the fitted curve by direction and shape.

SMILES | Potency
CCCc1cc(NCCCN(C)C)n2c(nc3ccccc32)c1C#N | active: 39.8 µM
CCN(CC)Cc1c(O)ccc2cc(-c3nc4ccccc4n3C)c(=O)oc12 | inconclusive [inhibitor, partial curve]
OCc1c[nH]c2ccccc12 | inconclusive [inhibitor, partial curve]
Cc1ccc(S(=O)(=O)NNC(=S)NCCc2ccccc2)cc1 | inconclusive [inhibitor, full curve]
CCOC(=O)N1CCN(C(=O)COc2ccc3ccccc3c2Br)CC1 | inactive
CN(Cc1ccccc1O)CC1CCCN(CCc2ccc(Cl)cc2)C1 (stereo not given) | inactive
COC(=O)c1cccc(C23CC4(C2)[C@H](CN(Cc2cccnc2)[C@@H]4c2ccccc2)C3c2ccc(C(F)(F)F)cc2)c1 (stereo not given in full) | inconclusive [inhibitor, partial curve]
COC(=O)c1ccccc1NC(=O)Cn1c(=O)n(-c2cccc(OC)c2)c(=O)c2c(C)c(C(=O)N(C)C)sc21 | inactive
Cc1ccc(CN2CCC(C(=O)Nc3cccc(-c4cccc(F)c4)c3)CC2)o1 | inconclusive [inhibitor, single point]
COc1cccc(/C=N/NC(=O)c2cc(-c3cccn3C)n[nH]2)c1O | inactive
O=C1CC(N2CCN(c3ccc(S(=O)(=O)N4CCCC4)cc3)CC2)C(=O)N1c1ccc(F)cc1 (stereo not given) | inconclusive [inhibitor, partial curve]
O=C(Cn1c(=O)c2cccn2c2ccccc21)Nc1cc(F)ccc1F | inactive
COC(=O)C1=C(C)NC(=S)NC1c1ccc(-c2cccc(Cl)c2)o1 (stereo not given) | active: 8.91 µM
CCCCSCc1[nH]c(=O)[nH]c1C(=O)CCCCC(=O)OCC | inconclusive [inhibitor, full curve]
O=C(Nc1ccc2nc(-c3cccnc3)[nH]c2c1)C1CCCCC1 | inactive
COc1ccc(NC(C)c2cc(Cl)ccc2O)cc1 (stereo not given) | inconclusive [inhibitor, partial curve]
COc1ccc2nc(-c3cccc(N)c3)[nH]c2c1 | inconclusive [inhibitor, single point]
COc1ccc(-n2c(O)c(/C=N/NS(=O)(=O)c3ccc(C)c([N+](=O)[O-])c3)c3ccccc3c2=O)cc1OC | active: 10 µM
COc1ccc(NC(=O)N2CCN(c3ccc([N+](=O)[O-])cc3)CC2)cc1OC | inactive
CSCCC(NC(=O)c1ccc(Cl)cc1Cl)C(=O)OC(C)C(=O)NCc1ccco1 (stereo not given) | inconclusive [inhibitor, single point]
